# Results taken from ChEMBL document CHEMBL5606460, “ASAP - DENV-2 NS2B-NS3 protease fluorescence single point” (2024).
# Screen size: about 2,000 compounds; about 110 (5.5%) showed an effect of 50% or more. This is one part of the list.
# Biological target: Genome polyprotein (dengue virus type 2) (UniProt P29990)
# [1] = Thailand/16681/1984, Concentration 25.0 uM, Number of replicates 1.0
smiles,measurement,setting,value
CCn1ccnc(N[C@@H](Cc2c[nH]c3ccccc23)C(=O)O)c1=O,inhibition,"Thailand/16681/1984, Concentration 49.5 uM, Number of replicates 2.0, Standard deviation 3.923841756395489 %",0.008%
same,inhibition,"Thailand/16681/1984, Concentration 99.01 uM, Number of replicates 2.0, Standard deviation 3.5390857683707204 %",2.09%
same,inhibition,"Thailand/16681/1984, Concentration 198.0 uM, Number of replicates 2.0, Standard deviation 3.6597093112390504 %",7.72%
CCn1ccnc(N2CC[C@H](c3ccc(OC)nc3)C2)c1=O,inhibition,"Thailand/16681/1984, Concentration 50.0 uM, Number of replicates 2.0, Standard deviation 0.28072363636644887 %",9.96%
same,inhibition,"Thailand/16681/1984, Concentration 100.0 uM, Number of replicates 2.0, Standard deviation 0.843255263217835 %",17.9%
same,inhibition,"Thailand/16681/1984, Concentration 200.0 uM, Number of replicates 2.0, Standard deviation 0.7121064089443038 %",30.8%
O=Cc1ccc(N2CCC(C(=O)N[C@H]3CCC[C@@H]3OCc3ccccc3)CC2)cc1,inhibition,[1],14.7%
N#C[C@H](c1c[nH]c2ccccc12)N1CCCCC1,inhibition,"Thailand/16681/1984, Concentration 49.5 uM, Number of replicates 2.0, Standard deviation 1.7041829423606667 %",-0.972%
same,inhibition,"Thailand/16681/1984, Concentration 99.01 uM, Number of replicates 2.0, Standard deviation 2.1140860898938385 %",0.234%
same,inhibition,"Thailand/16681/1984, Concentration 198.0 uM, Number of replicates 2.0, Standard deviation 2.4972043146057463 %",1%
CCCCCC(=O)N[C@@H](Cc1ccc(CN)cc1)C(=O)Nc1cccc(C(N)=O)c1,inhibition,"Thailand/16681/1984, Concentration 49.5 uM, Number of replicates 2.0, Standard deviation 2.7367965886293226 %",0.18%
same,inhibition,"Thailand/16681/1984, Concentration 99.01 uM, Number of replicates 2.0, Standard deviation 1.715794241074736 %",2.56%
same,inhibition,"Thailand/16681/1984, Concentration 198.0 uM, Number of replicates 2.0, Standard deviation 0.08109694285593377 %",6.73%
O=Cc1ccc(N2CCC(C(=O)Nc3ccc(OC(F)F)cc3)CC2)cc1,inhibition,[1],7.22%
CNC(=O)c1cc(Cl)ccc1NS(=O)(=O)c1ccc(F)c(C(=O)N2CCCC2)c1,inhibition,"Thailand/16681/1984, Concentration 49.5 uM, Number of replicates 2.0, Standard deviation 0.7714528805703116 %",-4.6%
same,inhibition,"Thailand/16681/1984, Concentration 99.01 uM, Number of replicates 2.0, Standard deviation 1.6986403894371052 %",-2.1%
same,inhibition,"Thailand/16681/1984, Concentration 198.0 uM, Number of replicates 2.0, Standard deviation 1.4542094148600992 %",1.16%
CCCN(C[C@H](O)COc1ccccc1C(=O)CCc1ccccc1)C(=O)C1CCN(c2ccc(C=O)cc2)CC1,inhibition,[1],15.7%
Cc1cc(CO)c2cccc(Cc3ccccc3NC(=O)c3cccc(Cn4cncn4)c3)c2n1,inhibition,"Thailand/16681/1984, Concentration 49.95 uM, Number of replicates 2.0, Standard deviation 1.7939035624271265 %",-0.44%
same,inhibition,"Thailand/16681/1984, Concentration 99.9 uM, Number of replicates 2.0, Standard deviation 0.960302709210288 %",1.88%
COc1cc(Br)ccc1NC(=O)C1CCN(c2ccc(C=O)cc2)CC1,inhibition,[1],13.7%
O=Cc1ccc(N2CCC(C(=O)N3CCC[C@H](c4nc5ccccc5o4)C3)CC2)cc1,inhibition,[1],13.1%
Cc1cc(N)cc(CNC(=O)c2ccccc2Cc2cccc3c(CO)cc(C)nc23)c1,inhibition,"Thailand/16681/1984, Concentration 49.95 uM, Number of replicates 2.0, Standard deviation 1.0161746789387547 %",47.1%
same,inhibition,"Thailand/16681/1984, Concentration 99.9 uM, Number of replicates 2.0, Standard deviation 1.7549489162224476 %",74.7%
CNC(=O)c1cc(Cl)ccc1NS(=O)(=O)c1ccc(Cn2cncn2)cc1,inhibition,"Thailand/16681/1984, Concentration 49.5 uM, Number of replicates 2.0, Standard deviation 0.7766096317793165 %",-1.89%
same,inhibition,"Thailand/16681/1984, Concentration 99.01 uM, Number of replicates 2.0, Standard deviation 1.2995063622910579 %",-0.333%
same,inhibition,"Thailand/16681/1984, Concentration 198.0 uM, Number of replicates 2.0, Standard deviation 1.6197418261994996 %",2.7%
O=Cc1ccc(N2CCC(C(=O)N3CCC(c4nc5ccccc5[nH]4)CC3)CC2)cc1,inhibition,[1],13.9%
CNC(=O)c1cc(Cl)ccc1NS(=O)(=O)c1cnn(Cc2ccccc2)c1,inhibition,"Thailand/16681/1984, Concentration 49.5 uM, Number of replicates 2.0, Standard deviation 0.9758772341405187 %",-6.5%
COc1ccc(S(=O)(=O)Nc2ccc(C(=O)Nc3nc4ccccc4s3)cc2)cc1,inhibition,"Thailand/16681/1984, Concentration 49.5 uM, Number of replicates 2.0, Standard deviation 3.7544426140495926 %",29.1%
same,inhibition,"Thailand/16681/1984, Concentration 99.01 uM, Number of replicates 2.0, Standard deviation 4.187277935614527 %",33.9%
same,inhibition,"Thailand/16681/1984, Concentration 198.0 uM, Number of replicates 2.0, Standard deviation 2.8387015148887818 %",20.5%
CCOc1ccccc1CCNC(=O)C1CCN(c2ccc(C=O)cc2)CC1,inhibition,[1],8.02%
O=C(NCC1CC1)c1cc(Cl)ccc1NS(=O)(=O)c1ccc(Oc2ccccc2Cl)cc1,inhibition,"Thailand/16681/1984, Concentration 49.5 uM, Number of replicates 2.0, Standard deviation 0.6779748794958176 %",77.8%
same,inhibition,"Thailand/16681/1984, Concentration 99.01 uM, Number of replicates 2.0, Standard deviation 0.21598068225710626 %",88.2%
same,inhibition,"Thailand/16681/1984, Concentration 198.0 uM, Number of replicates 2.0, Standard deviation 0.009057863507173258 %",87%
O=Cc1ccc(N2CCC(C(=O)Nc3c(Cl)c(F)nc(F)c3Cl)CC2)cc1,inhibition,[1],10.4%
CNC(=O)c1cc(Br)cnc1NS(=O)(=O)c1ccc(Oc2ccccc2Cl)cc1,inhibition,"Thailand/16681/1984, Concentration 49.5 uM, Number of replicates 2.0, Standard deviation 0.1523274770628613 %",20.5%
same,inhibition,"Thailand/16681/1984, Concentration 99.01 uM, Number of replicates 2.0, Standard deviation 0.08785965758059779 %",73.9%
same,inhibition,"Thailand/16681/1984, Concentration 198.0 uM, Number of replicates 2.0, Standard deviation 0.12988512316778045 %",87.2%
Nc1ncnc2c(Br)cccc12,inhibition,"Thailand/16681/1984, Concentration 49.95 uM, Number of replicates 2.0, Standard deviation 2.229976942069456 %",-2.53%
same,inhibition,"Thailand/16681/1984, Concentration 99.9 uM, Number of replicates 2.0, Standard deviation 1.6212787531772979 %",-0.078%
CN(CCS(N)(=O)=O)C(=O)c1cc(Cl)ccc1NS(=O)(=O)c1ccc(Oc2ccccc2Cl)cc1,inhibition,"Thailand/16681/1984, Concentration 49.5 uM, Number of replicates 2.0, Standard deviation 3.051075775612508 %",8.12%
same,inhibition,"Thailand/16681/1984, Concentration 99.01 uM, Number of replicates 2.0, Standard deviation 2.2523140974306535 %",55.8%
same,inhibition,"Thailand/16681/1984, Concentration 198.0 uM, Number of replicates 2.0, Standard deviation 0.05978513602530914 %",97.7%
CC(C)Nc1nc2ccc(C(=O)Nc3c[nH]c(C(N)=O)c3)cc2[nH]1,inhibition,"Thailand/16681/1984, Concentration 49.5 uM, Number of replicates 2.0, Standard deviation 3.1266236643934975 %",-0.293%
same,inhibition,"Thailand/16681/1984, Concentration 99.01 uM, Number of replicates 2.0, Standard deviation 2.979513503560951 %",1.26%
same,inhibition,"Thailand/16681/1984, Concentration 198.0 uM, Number of replicates 2.0, Standard deviation 2.74818795455115 %",6.16%
CCc1ccc(-c2ccccc2C(=O)Nc2cnn(C)c2)c(F)c1,inhibition,"Thailand/16681/1984, Concentration 49.5 uM, Number of replicates 2.0, Standard deviation 0.8455770066617545 %",-0.985%
same,inhibition,"Thailand/16681/1984, Concentration 99.01 uM, Number of replicates 2.0, Standard deviation 1.2261793384720772 %",-0.538%
same,inhibition,"Thailand/16681/1984, Concentration 198.0 uM, Number of replicates 2.0, Standard deviation 2.01798052784263 %",0.736%
NC(=O)C1(N2CCCCC2)CCN(C(=O)C2CCN(c3ccc(C=O)cc3)CC2)CC1,inhibition,[1],14.5%
O=Cc1ccc(N2CCC(C(=O)NCCN3C(=O)c4ccccc4C3=O)CC2)cc1,inhibition,[1],13.3%
O=Cc1ccc(N2CCC(C(=O)NCCc3ccccc3C(F)(F)F)CC2)cc1,inhibition,[1],14.4%
O=Cc1ccc(N2CCC(C(=O)N(Cc3ccccn3)Cc3ccccn3)CC2)cc1,inhibition,[1],12.6%
O=Cc1ccc(N2CCC(C(=O)Nc3c(F)cccc3Br)CC2)cc1,inhibition,[1],12.8%
O=Cc1ccc(N2CCC(C(=O)NCCSCc3ccccc3)CC2)cc1,inhibition,[1],14.2%
